Measurements from the supplement of paper PMC3334620.
The full ranking holds about 33,000 sequences; the median of “E-score (-0.5 to 0.5)” is about -0.043, and the highest 2% start at about 0.37. Some of the results follow.

These sequences were tested against T1, Upc2 (UniProt Q12151) (assay: PBM E-score (8-mer binding enrichment) (E-score (-0.5 to 0.5)); higher = stronger / more preferred TF binding; most listed sequences are background and not binding sites). Settings: protein concentration: 200 nM; construct: GST-full length.
T1 sequence: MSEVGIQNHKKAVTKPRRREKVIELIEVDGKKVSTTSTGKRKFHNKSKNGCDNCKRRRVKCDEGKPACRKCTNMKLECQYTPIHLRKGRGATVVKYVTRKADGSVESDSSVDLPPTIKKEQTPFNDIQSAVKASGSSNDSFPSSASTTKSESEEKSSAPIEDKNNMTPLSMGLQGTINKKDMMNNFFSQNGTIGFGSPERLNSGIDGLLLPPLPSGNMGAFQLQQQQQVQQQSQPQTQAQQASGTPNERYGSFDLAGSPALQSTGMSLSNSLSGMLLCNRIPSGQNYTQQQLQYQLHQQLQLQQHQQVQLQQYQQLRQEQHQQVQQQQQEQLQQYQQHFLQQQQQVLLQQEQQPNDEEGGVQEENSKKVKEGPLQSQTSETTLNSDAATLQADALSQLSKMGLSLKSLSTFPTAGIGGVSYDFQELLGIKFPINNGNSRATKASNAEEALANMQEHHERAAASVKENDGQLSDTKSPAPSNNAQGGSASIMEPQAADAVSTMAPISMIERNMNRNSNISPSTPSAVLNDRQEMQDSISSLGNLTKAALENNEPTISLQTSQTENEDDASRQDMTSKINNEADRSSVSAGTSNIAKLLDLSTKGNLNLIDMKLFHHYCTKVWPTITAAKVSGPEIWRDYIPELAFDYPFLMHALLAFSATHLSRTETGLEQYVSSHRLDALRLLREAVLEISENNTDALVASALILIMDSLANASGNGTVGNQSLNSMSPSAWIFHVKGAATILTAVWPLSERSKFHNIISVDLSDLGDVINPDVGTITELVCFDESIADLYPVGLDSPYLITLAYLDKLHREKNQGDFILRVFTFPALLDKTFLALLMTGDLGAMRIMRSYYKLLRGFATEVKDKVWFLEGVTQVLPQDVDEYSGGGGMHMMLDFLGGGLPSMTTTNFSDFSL
Summary of the method: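 The E-score, a modified Wilcoxon-Mann-Whitney statistic, was computed by the Universal PBM Analysis Suite for every ungapped eight-base word pooled with its reverse complement. Scans behind it were normalised with masliner after bound GST-tagged yeast transcription factors were detected with fluorescent anti-GST. The proteins, at about 100-200 nM, had been applied to universal all-10-mer Agilent arrays made double-stranded by primer extension.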

Sequence	PBM E-score
GAAGTGAA	-0.084
GTCCGCTA	0.0438
AGCGCCCA	-0.343
TGCCTAAA	-0.0221
CAACGCTG	-0.0985
AGCGTTTA	0.363
ACGTCTTA	0.227
AGAATCTG	0.069
GCTAAAAA	-0.149
CACGCATA	-0.0465
CAGAGTAC	-0.0144
CGCTGCCG	-0.0536
GACGGGCC	-0.0442
TAACTAAA	-0.00267
CCGCGGCC	0.0862
CGAGCTCA	0.273
CAGGTAAG	0.0316
AGGCGGTA	-0.0428
GTAAGCGA	0.388
CCATAAAC	0.24
TCCGAGAA	0.248
GAATGACA	-0.158
AATAGCGT	-0.00637
CATACACG	0.191
CTGCAGGA	-0.194

Sequence	PBM E-score
AGGTCGAA	-0.0868
GGGTGGCA	-0.223
GGTCCCAC	0.0957
AGACGCGC	0.0974
CGACCCGA	0.164
AAGAATGT	-0.0883
CCAGGCGG	-0.151
GTGGCCTA	-0.114
CCCTTTCA	-0.157
ATTAAGGC	-0.131
CACTTTAC	0.15
CTAATCAA	-0.0908
CGTCTAAC	0.0838
AGGACGCC	-0.118
CAGCGAAA	0.0819
GGTTACGA	0.408
ATGGGGTG	-0.188
TTGATAAA	0.0742
ATAACGGG	-0.0555
ATGAATCA	-0.0273
GACAAGTC	-0.0895
CCGTATCA	0.334
GCTAATAC	0.024
CTCTTCCA	-0.0797
ACATTATA	0.0353

Sequence	PBM E-score
ATTACAAG	-0.139
CACGGGGA	-0.233
AATCGCAA	0.0942
CCTTCGTA	0.441
CTTTCGGC	-0.317
CACATCTG	-0.242
AGTACGGG	0.122
TAAGCTAA	0.177
ATACCGGC	0.0554
CTGTTTAA	0.0306
TCTGGTAA	0.0299
CGATAGTC	0.121
CGTGGCAA	-0.199
TCATTTAA	-0.218
GTACCGAC	0.141
AGAACTCT	-0.0634
AGGCACCG	0.0555
GAGAGGCA	-0.134
CCACACCA	-0.0693
AAGTAAAC	0.314
GTCGCCAC	0.0198
ATGGATAC	0.0889
AAACAAAG	-0.0514
GCGTAACC	0.154
ATGGTTAC	0.0571

Sequence	PBM E-score
CGCCACCA	-0.212
CATATAGC	-0.0979
TATAACGA	0.286
ATCGGCTA	-0.0554
CCCACCTA	-0.159
ACGAGTGC	0.377
ACTAAACC	0.0385
CCGTTGAA	-0.0413
CAGAATCC	-0.129
GAGTGACC	0.0211
GGCAATTA	-0.0875
AAGGGCAG	-0.211
ACAGTAAA	0.148
GGATTGGA	-0.118
CGACTTAC	0.128
CCCGTCAC	-0.119
ATCGATGC	-0.0035
AGAAGCCA	-0.125
ATGAGGAG	-0.325
GTCCAGGA	-0.0554
GCATTTCC	-0.0365
TTCACCAA	-0.00044
AGTATCAC	-0.0622
GATCTTCC	-0.106
AATCACGG	-0.119

Sequence	PBM E-score
GACGATAA	0.111
CCGACTAG	-0.135
AAATTTAT	0.0842
CTTAATGA	-0.00126
AGCGGCAT	-0.044
AGAATCGC	0.106
CACTATGC	0.0183
GTCGTACA	0.483
ATGCGGAA	0.107
CCACACGG	-0.0115
AACACTAC	0.0431
CGGCACAG	-0.0711
GAGATTTA	-0.0239
GGATTGAC	-0.0986
CCGCGAAA	-0.0199
AGCCGTGC	-0.15
ACTTAATA	-0.018
CAAAGCTA	0.0114
ACGCCAAA	0.0764
AAGTATCA	-0.174
ATCGTTGG	0.0354
AAGATTAC	0.0318
ACCTGAGG	-0.237
GCGATAGA	0.126
GATCGGAC	-0.0578

Sequence	PBM E-score
ATATGCAC	-0.00312
AGGTGGTC	-0.184
GTTACCCA	-0.175
ACATGTAG	-0.0513
GCCTGGAA	-0.182
ATATAGCA	-0.0248
ACACGCGG	-0.186
GCTACACC	-0.158
CAAACCAA	-0.0557
CGATAACA	-0.0412
CAACACTG	-0.0451
CGCTACCC	-0.155
AAACTGCC	0.148
CGTTCAGA	0.372
AGTACAAA	-0.013
CGGCGATA	0.136
CCGCAGAG	-0.311
AACACGAG	0.144
ACTGATAT	-0.00224
AGCTAACC	-0.0678
ACACAAAT	0.0348
AAGCATGG	-0.262
ATGATGCA	0.154
ATTGCATA	-0.0863
AGGTGGAG	-0.392

Sequence	PBM E-score
CGATGCGA	0.16
GAAACAAA	0.0262
CTAGCTAG	-0.0655
AACCAGGT	-0.19
ACTTTCGC	0.0685
AGGGCCGC	-0.259
AACCGCGC	-0.00774
GAAGTTCA	-0.0526
AATAGCAT	-0.143
AGCTCTGA	-0.152
AGACGACC	0.132
AAAGAAAG	-0.0521
AGCGACCT	0.132
GCTAGTCC	-0.0309
AATTCTCA	-0.201
GGCTGATA	-0.0951
AGGAGCGC	-0.0389
ACGAGCGG	0.369
GTACGGAC	0.35
GAATTACC	0.0138
GGCTGCCC	-0.013
ATCGTGGC	-0.0693
